One molecule from publication PMC7708041 can be followed below.

Results are given in words; binding and its absence hold for the method and conditions named. Binding seen in cells or lysates may run through a third protein. Some binding calls cover weakened binding; strength is not graded here. Where a sequence is shown, tags or fusion partners need not be part of it.

The target in the test is T1, tof1 1182 truncation protein, C terminally TAP tagged (S. cerevisiae) (UniProt P53840).
T1 sequence: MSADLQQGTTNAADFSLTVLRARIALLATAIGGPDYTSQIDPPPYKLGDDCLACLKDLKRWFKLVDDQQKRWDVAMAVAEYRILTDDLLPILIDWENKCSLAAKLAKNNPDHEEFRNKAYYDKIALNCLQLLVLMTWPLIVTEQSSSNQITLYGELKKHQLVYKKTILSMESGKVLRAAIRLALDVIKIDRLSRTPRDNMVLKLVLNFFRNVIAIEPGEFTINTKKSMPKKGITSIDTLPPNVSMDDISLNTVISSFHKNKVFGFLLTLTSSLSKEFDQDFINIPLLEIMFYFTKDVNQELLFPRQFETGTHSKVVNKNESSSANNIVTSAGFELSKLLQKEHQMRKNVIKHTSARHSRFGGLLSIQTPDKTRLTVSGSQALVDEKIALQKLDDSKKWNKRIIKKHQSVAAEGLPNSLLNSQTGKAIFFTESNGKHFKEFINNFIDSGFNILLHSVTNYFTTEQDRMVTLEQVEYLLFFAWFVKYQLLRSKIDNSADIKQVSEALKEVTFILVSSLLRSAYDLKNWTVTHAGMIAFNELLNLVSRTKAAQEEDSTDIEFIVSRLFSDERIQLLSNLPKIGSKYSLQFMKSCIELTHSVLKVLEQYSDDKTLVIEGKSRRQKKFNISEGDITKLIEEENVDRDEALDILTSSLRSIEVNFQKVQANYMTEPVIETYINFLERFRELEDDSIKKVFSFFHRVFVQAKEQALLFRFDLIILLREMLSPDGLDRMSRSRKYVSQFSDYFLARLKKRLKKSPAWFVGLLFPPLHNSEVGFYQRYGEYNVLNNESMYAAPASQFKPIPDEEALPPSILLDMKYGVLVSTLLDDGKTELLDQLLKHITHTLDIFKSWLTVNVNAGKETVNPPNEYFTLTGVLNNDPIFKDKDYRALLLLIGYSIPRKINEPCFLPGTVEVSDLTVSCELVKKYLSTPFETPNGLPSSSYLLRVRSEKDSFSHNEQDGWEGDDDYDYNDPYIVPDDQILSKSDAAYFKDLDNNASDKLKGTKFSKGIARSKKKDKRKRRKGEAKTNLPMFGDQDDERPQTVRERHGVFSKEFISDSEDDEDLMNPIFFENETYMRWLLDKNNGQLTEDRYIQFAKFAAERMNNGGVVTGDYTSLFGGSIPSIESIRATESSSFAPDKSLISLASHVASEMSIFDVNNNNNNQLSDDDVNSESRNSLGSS
Put plainly: co-IP; TAP-tagged Tof1 proteins captured on IgG Sepharose from cleared lysates of exponentially growing yeast; 2 h, 4°C; lysis buffer 50 mM HEPES pH 7.5, 300 mM KCl, 5 mM EDTA, 10 mM MgOAc, 10% glycerol, 0.01% Triton X-100; eluted in 0.2 M glycine pH 3.0; western blot with anti-Csm3.

B1: Csm3 (protein, UniProt Q04659 1-317)
chain: MDQDFDSLLLGFNDSDSVQKDPTVPNGLDGSVVDPTIADPTAITARKRRPQVKLTAEKLLSDKGLPYVLKNAHKRIRISSKKNSYDNLSNIIQFYQLWAHELFPKAKFKDFMKICQTVGKTDPVLREYRVSLFRDEMGMSFDVGTRETGQDLERQSPMVEEHVTSAEERPIVADSFAQDKRNVNNVDYDNDEDDDIYHLSYRNRRGRVLDERGNNETVLNNVVPPKEDLDALLKTFRVQGPVGLEENEKKLLLGWLDAHRKMEKGSMTEEDVQLIQSLEEWEMNDIEGQHTHYDLLPGGDEFGVDQDELDAMKEMGF
With B1, the binding result is given as “binds”.
